Laboratory results taken from ChEMBL document CHEMBL4888484, “Replenishing the malaria drug discovery pipeline: Screening and hit evaluation of the MMV Hit Generation Library 1 (HGL1) against asexual blood stage Plasmodium falciparum ,using a nano luciferase reporter read-out” (2022).
Out of some 150,000 compounds screened, about 540 (0.36%) showed an effect of 50% or more. Some of the results follow.

What follows are compounds tested on Plasmodium falciparum (assay: Primary screen in NF54 nanoGlo assay, in single point, at 2uM, 72h; a lower Z score goes with more inhibition). Details: timepoint 72 hour.
Format: functional, Erythrocyte

| Compound | % Inhibition [%] | Z score |
| --- | --- | --- |
| CCN1CC[C@H](CN(C)S(=O)(=O)c2cc(C)sc2C)C1 | 3 | -0.29 |
| CCN1[C@@H]2CCCC[C@@]2(C(=O)NCCN(C)C2CCCCC2)CCS1(=O)=O | 7 | -1.19 |
| Cc1cnc(C)c(N2Cc3cnn(CCO)c3C2)n1 | -12 | 1.53 |
| CC(C)(C)OC(=O)N1CCN(C(=O)c2ccn(-c3cccc(F)c3)n2)[C@H](C#N)C1 | -14 | 1.87 |
| CNC(=O)NCc1cccnc1-c1cccc(C)c1 | 18 | -2.41 |
| O=C(CCn1cnc2cc(-c3noc(-c4ccc(F)c(Cl)c4)n3)ccc21)N1CCCC1 | -13 | 1.7 |
| COc1ccc(C2CN(C(=O)c3ccc(F)cc3)CC2C(=O)N2CCOCC2)c(OC)c1 (stereo not drawn) | -10 | 1.58 |
| CC(C)N1CCC[C@H](CN(C)c2nccc(N)n2)C1 | -1 | 0.2 |
| COc1ccc(-c2ncc(CN[C@H]3CCCc4c3cnn4-c3ccccc3F)cn2)cc1 | -11 | 1 |
| CCn1cnc2c1CCN(C(=O)Nc1cc(C)cnc1OC(C)C)C2 | -11 | 2.05 |
| O=C(NCc1cn(-c2ccncc2)nn1)Nc1nccs1 | 3 | -0.45 |
| CC(C)(C)n1nnnc1CN1CCc2nc[nH]c2C12CCOCC2 | -8 | 0.83 |
| CC[C@@H](C(=O)NCc1cnc(C)cc1C)N1CCCC1 | -8 | 1.18 |
| CCCCc1nc(Cn2nc3ccccn3c2=O)no1 | 0 | -0.05 |
| NC(=O)CCn1cc(CNCCc2[nH]nc3c2CCCC3)c2ccccc21 | -6 | 1.2 |
| Cc1cc(Cn2c(-c3ccccc3)c(C)sc2=O)on1 | -8 | 1.27 |
| CCc1ccc(CNC(C)(C)c2cnn(C)c2)o1 | -3 | 0.27 |
| Cc1cc(C(=O)N[C@@H](Cn2cncn2)C(C)C)n(C)n1 | 15 | -1.99 |
| CC(=O)NCc1ccc(-c2noc(CCc3c[nH]c4ccccc34)n2)s1 | 0 | -0.03 |
| CCn1cc([C@H](CC(=O)NCCOC)c2cc(OC)cc(OC)c2)c2ccccc21 | -1 | 0.13 |
| CCCCN(CC)CCNc1ncnc2onc(C)c12 | -5 | 0.88 |
| CNc1nc2c(s1)[C@@H](c1cc(Cl)ccc1F)CC(=O)N2 | -3 | 0.38 |
| Cc1cccc(-c2nc3n(CC(=O)Nc4ccc(F)cc4)c(C)cc(=O)n3n2)c1 | 1 | -0.13 |
| Cc1ccc(-n2c(C)nn(-c3ncc(C(F)(F)F)cc3Cl)c2=O)cc1 | 0 | -0.01 |
| CCCNC(=O)NC(=O)COc1ccc(Cl)cc1 | -3 | 0.21 |
| COCCNC(=O)[C@@]1(OCc2cccc(OC)c2)CC(OCc2c(F)cccc2F)[C@@H]2OC(C)(C)O[C@@H]2C1 (stereo partly drawn) | 1 | -0.09 |
| CC(c1ccccn1)N(C)CC(=O)NC(C)(C#N)C1CC1 (stereo not drawn) | -11 | 2.02 |

| Compound | % Inhibition [%] | Z score |
| --- | --- | --- |
| O=C(Nc1nc2n(n1)[C@@H](c1ccc(F)cc1)C[C@@H](c1ccccc1)N2)c1cccnc1 | -2 | 0.24 |
| Cc1cccc(C2(C(=O)N3C[C@H]4CN(C)C[C@H]4C3)CCCC2)c1 | -4 | 0.45 |
| Cc1ncc2n1C[C@@H](C(=O)Nc1cccc(C(F)F)c1)CC2 | -12 | 1.28 |
| Cc1ccc(CNC(=O)c2sccc2S(=O)(=O)N(C)C)n1C | -16 | 1.45 |
| Cc1nccn1C[C@@H](C)CNC(=O)c1ccc2c(=O)n3c(nc2c1)CCCCCC3 | 22 | -2.81 |
| O=C(CNC1CCCC1)NCc1ccc(Cl)cc1 | 0 | 0.04 |
| COc1cccc(NC(=O)c2ncn(C[C@H](O)c3ccccc3)n2)c1 | -12 | 1.38 |
| O=C(C[C@@H]1NC(=O)c2ccccc2NC1=O)NCCc1nnc2ccccn12 | -6 | 0.91 |
| CCc1cc2c(CC(=O)O)ncnc2s1 | -12 | 1.75 |
| Cc1ccc(CCC(=O)NCc2cncc(-c3ccoc3)c2)cc1F | 27 | -3.42 |
| Cc1noc(C2CN(C(=O)c3cc4ccccc4o3)C2)n1 | -6 | 1.08 |
| COc1cc2c(cc1OC)[C@@H](NC(=O)c1cnc(C3(C)OCCO3)s1)CCCC2 | 35 | -6.63 |
| COC(=O)[C@@]1(Cc2c[nH]cn2)N[C@@H](c2cccc(F)c2O)[C@H]2C(=O)N(C)C(=O)[C@H]21 | -6 | 1.06 |
| Cc1nccn1[C@@H](C)C(=O)NCC1(CO)CCC1 | -7 | 0.97 |
| CC=CCS(=O)(=O)CC(=O)N1C(C)CCCC1C (stereo not drawn) | 7 | -1.29 |
| CC(C)[C@H](CNC(=O)c1ccc(O)c(F)c1)N(C)C | 6 | -0.87 |
| CNC(=O)NC(=O)CNc1cc(Cl)cc(Cl)c1 | 35 | -3.92 |
| COC[C@](C)(NS(=O)(=O)c1c(F)cc(F)cc1OC)C(N)=O | -14 | 1.87 |
| Cc1ccc(Cl)cc1N1CCN(CCNC(=O)Cn2ncc3c4ccccc4n(C)c3c2=O)CC1 | 1 | -0.19 |
| O=C(CCOc1ccccc1)NC1CCC(F)(F)CC1 | -5 | 0.83 |
| CC[C@H](C)N(Cc1c(-c2cccc(C)c2)noc1N1CCOCC1)C(=O)c1cccs1 | 1 | -0.15 |
| CC(C)CNC(=O)c1ccc(N(C)C)c(N)c1 | 2 | -0.27 |
| Cc1nc(C)n(CCCNC(=O)Cc2cccnc2)n1 | -16 | 2.01 |
| COc1cc2c(cc1OC)CN(C(=O)Cc1nn(C)c3ccccc13)CC2 | 11 | -1.93 |
| COc1cc(-c2nc(CN3CCN(Cc4nccn4C)CC3)c(C)o2)cc2c1OCO2 | -9 | 0.75 |
| O=S(=O)(c1sccc1C1OCCO1)N1CC[C@]2(CCOC2)C1 | -5 | 0.62 |
| Cc1nn(C)c(N)c1C(=O)NC[C@@H]1C[C@H]1c1ccccc1 | -6 | 0.93 |
